Data from PubChem BioAssay AID493208 (National Center for Advancing Translational Sciences (NCATS), 2011).
Hit rate of the full screen: of about 44,000 compounds, about 340 (0.77%) were called active. Inconclusive results (about 5%) are left out. The call rests on the fitted dose curve; in most records, active means well fitted inhibition curve with a large enough effect; inconclusive means small, poorly fitted or top-dose-only effect; inactive means flat fitted curve, though single readings scatter. This is one part of the list.

Assay: Acumen qHTS Assay for Inhibitors of the mTORC1 Signaling Pathway in MEF (Tsc2-/-, p53-/-) Cells: Sytravon;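 further: plate controls were DMSO for no effect and rapamycin for full effect; nearly all actives have a fitted effect of over 50% in size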
Details: phospho-rpS6 immunofluorescence/PI, 24 h; series mostly up to 38.3 µM; activity change, negative = inhibition: at the top concentration
Summary of the method: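 Cell-based qHTS: Tsc2-/- p53-/- MEF, 24 h cpd, 37 °C; fix/perm, anti-phospho-S6 Alexa-488 + PI; Acumen 488 nm scan; pS6/PI ratio, % positive cells; rapamycin 7.5 nM = inhibition ref; PI count = viability.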

Activity change, negative = inhibition, inactive:
COc1ccc(CC(=O)NCc2ccc3c(c2)CCN3C(=O)c2ccc(Cl)cc2)cc1OC -3.91%
Cc1cc(-c2ccc(C)c(S(=O)(=O)N(C)c3ccc(C)c(C)c3)c2)on1 -13.2%
COc1ccccc1NC(=O)Cn1c(=O)n(Cc2ccco2)c(=O)c2cccnc21 -2.39%
CCOC(=O)c1c(Oc2ccc(OC)cc2)nnc(-c2ccccc2)c1-c1ccccc1 -1.81%
Cc1ccc(OCCCn2c(CCNC(=O)C3CCCCC3)nc3ccccc32)c(C)c1 -0.576%
COc1ccc(OC)c(NC(=O)CN2C(=O)c3ccccc3Sc3ccc(C(=O)N4CCCC4)cc32)c1 -11.7%
COc1ccc(N(Cc2cccs2)C(=O)Nc2ccccc2)cc1 -3.83%
Cn1cnnc1SCC(=O)Nc1cc(C(=O)O)cc(C(=O)O)c1 1.12%
Cc1nn(CC(=O)NC2CCCCC2)c(=O)c2cc3cc(F)ccc3n12 0.714%
Cc1cccc(C(=O)NCC(c2ccc3c(c2)OCO3)N2CCN(c3ccccc3F)CC2)c1 (configuration not stated) -3.4%
COc1cc(-c2noc(CSc3nc(-c4ccccc4)cc(=O)[nH]3)n2)cc(OC)c1OC -7.39%
COc1ccc(NC(=O)c2sc3nc4c(cc3c2N)CN(C(C)C)CC4)c(OC)c1 -1.35%
Cc1cc(=O)n2[nH]c(NCc3ccc(F)cc3)nc2n1 -4.38%
Cc1ccc(-n2nc(C)c3c(C)cc(=O)n(CC(=O)Nc4ccc(Br)cc4F)c32)cc1 -1.04%
COc1ccc(S(=O)(=O)c2c(Nc3ccc(C)cc3)sc(C(=O)c3ccc(C)cc3)c2N)cc1 3.3%
O=C(CCCn1c(=O)c2cccn2c2ccc(F)cc21)NCCc1ccccc1 -10.2%
CCOC(=O)CSc1nc2ccc(NC(=O)c3ccc(F)cc3)cc2s1 -20.2%
Cc1ccc(Cl)cc1NC(=O)Nc1c(C)n(C)n(-c2ccccc2)c1=O 12.5%
Cc1ccc(CSCC(=O)NCc2ccc(F)cc2)cc1 16.8%
COc1ccc(NC(=O)Cn2cc(S(=O)(=O)c3ccc(C)cc3)c(=O)c3ccccc32)cc1OC -15%
COc1ccc(-c2noc(-c3ccc(NCc4ccco4)c([N+](=O)[O-])c3)n2)cc1 -1.68%
CCOC(=O)c1cccc(NC(=O)CCc2c(C)nc3cc(-c4ccc(Cl)cc4)nn3c2C)c1 -1.61%
CC1=C(C(=O)Nc2cccnc2)C(c2cccc(O)c2)n2nc(SCc3ccccc3)nc2N1 (configuration not stated) 3.36%
Cc1cc(C)c(Cn2c(CCNC(=O)c3ccco3)nc3ccccc32)c(C)c1 -15%
CCCn1c(=O)n(-c2cc(Cl)c(OC)cc2OC)c(=O)c2c3c(sc21)CN(C(C)=O)CC3 -0.318%
Cc1ccc([C@H]2Nc3ccc(S(=O)(=O)Nc4cccc(Cl)c4C)cc3[C@H]3C=CC[C@H]32)cc1 -19.8%
CCn1cc(CCC(=O)NCc2ccc(F)cc2)c2ccccc21 -4.44%
Cc1ccc(Nc2nnc(-c3ccc(C)c(S(=O)(=O)N4CCN(C)CC4)c3)c3ccccc23)c(C)c1 -24.9%
CCCN(C(=O)c1nn(-c2ccc(OC)c(Cl)c2)c(=O)c2c1c1ccccc1n2C)c1ccccc1F 0.125%
COc1ccc(OC)c(NC(=O)Cn2cnc3sc(C)c(S(=O)(=O)N4CCN(c5ccccc5OC)CC4)c3c2=O)c1 2.79%
CCOc1ccccc1CNC(=O)C1CCN(C2=NS(=O)(=O)C(c3ccc(C)c(C)c3)=C2C)CC1 -8.35%
COc1ccc(C(=O)N2CCC(c3nc4ccccc4o3)CC2)cc1 0.42%
CCOc1ccc(C(=O)NCCc2csc(-c3ccc(C(F)(F)F)cc3)n2)cc1OCC -0.0367%
COc1ccc(C(=O)Nc2cc(C(C)C)c(O)c(S(=O)(=O)c3ccc(OC)cc3)c2C)cc1 11.7%
c1ccc(Cc2nnc(SCc3nc(-c4cccs4)no3)n2-c2ccccc2)cc1 -4.15%
Cc1ccccc1N1CCN(S(=O)(=O)c2nnc(NC(=O)c3ccccc3)s2)CC1 1.54%
COc1ccc(S(=O)(=O)c2c(Nc3ccc(F)cc3)sc(C(=O)c3ccc(C)cc3C)c2N)cc1 -1.83%
COc1cccc(NC(=O)c2sc3nc(C)c(C(=O)Nc4ccc(C)cc4C)c(-c4sccc4C)c3c2N)c1 -15.4%
O=c1c2oc3ccccc3c2n(Cc2cccc(F)c2)c(=O)n1Cc1ccco1 -1.57%
CC(C)c1ccc2oc(-c3cc(NC(=O)c4cccs4)ccc3Cl)nc2c1 -1.59%
Cc1ccc(Cl)cc1N1CCN(C(=O)C2CCCN(S(=O)(=O)c3ccc(Br)s3)C2)CC1 (configuration not stated) 2.85%
COc1ccccc1NC(=O)CCn1cnc2ccccc2c1=O -4.42%
Cc1ccc2nc(-c3ccc(Cl)c(NC(=O)c4cccnc4)c3)oc2c1 3.43%
CN(C(=O)c1cc2c(=O)oc3ccccc3c2s1)c1ccc(F)cc1 0.0831%
CCOc1ccc(NC(=O)CSc2nccn2-c2cccc(C)c2C)cc1 -5.5%
CC(=O)N1CCCc2cc(S(=O)(=O)N3CCCCC3)ccc21 -1.52%
CCOc1ccccc1CNC(=O)c1cc2c(=O)n(Cc3ccccc3)ccc2nc1C -1.6%
CCCCn1c2ccc(F)cc2c2nnc(SCCN3CCCCC3)nc21 -0.811%
CCOC(=O)C1CCN(S(=O)(=O)c2cc(-c3onc(C)c3C)ccc2OC)CC1 6.32%
Cc1ccc(OCC(=O)NCC(=O)OCc2cc(=O)n3nc(C)sc3n2)cc1 -0.134%
COc1ccc(CCNC(=O)CSc2ncc3c(n2)-c2cc(Cl)ccc2N(Cc2ccccc2)S3(=O)=O)cc1OC -2.12%
COc1ccc(CNC(=O)c2ccc3c(c2)N(Cc2cccc(Cl)c2)C(=O)c2ccccc2S3)c(OC)c1 4.69%
CC(C)c1ccc(NC(=O)CSC2=Nc3ccccc3C3=NC(CC(=O)NCc4ccc(F)cc4)C(=O)N23)cc1 (configuration not stated) -6.75%
COCCCNC(=O)CCn1c(=O)c2ccccc2n(CC(=O)Nc2c(C)cc(C)cc2C)c1=O -4.54%
Cc1cccn2c(Nc3ccccc3)c(-c3ccc(N4CCOCC4)cc3)nc12 -31.9%
Cc1ccc(-n2c(=O)c3cccnc3n2CC(=O)Nc2cccc(C)c2C)cc1 2.17%
CC(C)c1ccc(OC(=O)c2cc(-c3ccc4c(c3)OCCO4)on2)cc1 -4.1%
CCOc1ccc(C(=O)Nc2nnc(SCc3cc(=O)c4cc(C)ccc4[nH]3)s2)cc1 -1.62%
COc1cccc2sc(N(Cc3cccnc3)C(=O)COc3ccccc3)nc12 -5.91%
Cc1nn(-c2ccccc2)c(OC(=O)c2ccccc2F)c1S(=O)(=O)c1ccccc1 -14.7%
COc1cccc(N2CCN(C(=O)c3cccc(NC(=O)c4nsc5ccccc45)c3)CC2)c1 -6.88%
Cc1sc2c(c1C)c(=O)n(CCc1ccccc1)c(=O)n2Cc1ccccc1Cl -1.69%
Cc1ccc(C)c(NC(=O)CSc2nc(=O)n(CCN(C)C)c3c2CCC3)c1 1.67%
COc1cc(CN(C(=O)c2ccccc2[N+](=O)[O-])c2ccccn2)cc(OC)c1OC -21.1%
CCn1c(=O)c2cc(C(=O)N3CCN(c4cccc(Cl)c4)CC3)sc2c2ccccc21 -10.9%
CCN(CC)S(=O)(=O)c1ccc2c(c1)nc(CN(C)C(=O)c1cccc(Cl)c1)n2C 5.95%
COc1ccc(CCNC(=O)C2=C(C)C(=O)OC23CCCCC3)c(OC)c1OC -6.92%
CC1CCN(S(=O)(=O)c2ccc3c(c2)N(CC(=O)NCCCN2CCCCC2C)C(=O)CS3)CC1 (configuration not stated) 10.3%
N#Cc1ccccc1NC(=O)c1cc2c(=O)n3ccccc3nc2s1 -13.1%
COc1ccc(OC)c(CNC(=O)C2CCN(S(=O)(=O)c3cn(C)cn3)CC2)c1 -6.97%
COc1cc(Cl)c(C)cc1NC(=O)c1cc(CN2CCOCC2)on1 -11.3%
Cc1cc(NC(=O)c2ccc3c(c2)N(Cc2cccc(Cl)c2)C(=O)c2ccccc2S3=O)ccc1Br (configuration not stated) 0.218%
CCc1ccc(NC(=O)CCS(=O)(=O)c2ccc3c(c2)CCN3C(C)=O)cc1 1.32%
CC1CCCN(Cc2c(O)ccc3c(=O)c(Oc4ccccc4Cl)c(C(F)(F)F)oc23)C1 (configuration not stated) 2.23%
Cc1ccc(S(=O)(=O)c2cn(Cc3ccccc3F)c3cc4c(cc3c2=O)OCO4)cc1 -20.2%
CCC1CN(S(=O)(=O)c2cc(-c3cc(C)no3)ccc2OC)c2cc(C)ccc2O1 (configuration not stated) -8.09%
COc1ccc(C(=O)N(Cc2sccc2C)C2CCS(=O)(=O)C2)cc1Cl (configuration not stated) 0%
Cc1cc(C)c(S(=O)(=O)Nc2cc(-c3cn4ccccc4n3)ccc2C)cc1C 2.63%
CCN1CCN(C(=O)c2ccc3c(c2)N(Cc2ccc(Cl)cc2)C(=O)c2ccccc2S3(=O)=O)CC1 -14.7%
Cc1cc(=O)n2c(C(=O)Nc3ccc(C)c(Cl)c3)c(C(=O)Nc3ccccc3)sc2n1 4.43%
Cc1cccc(N2CCN(C(=O)C3CCN(S(=O)(=O)c4c(C)noc4/C=C/c4ccccc4F)CC3)CC2)c1C -1.67%
O=C(Cn1ncc2c([nH]c3ccccc32)c1=O)Nc1cc(F)ccc1F 6.15%
Cc1ccc(C(=O)c2sc(Nc3ccccc3F)c(S(=O)(=O)c3ccccc3)c2N)c(C)c1 -10.1%
O=C(NCc1ccc2c(c1)OCO2)c1ccc2c(c1)N(Cc1cccc(Cl)c1)C(=O)c1ccccc1S2 9.03%
O=C(Nc1nnc(S(=O)(=O)N2CCCCCC2)s1)c1ccc(Br)cc1 -9.5%
COc1c(Cl)cc(C(=O)Nc2cccc(-c3nc4ccccc4[nH]3)c2)cc1Cl 4.56%
CC(=O)c1ccc(NC2=NS(=O)(=O)c3ccccc32)cc1 -18.8%
O=C(NCc1ccc(F)cc1)c1ccc(CSc2nc3ccncc3n2Cc2ccc(F)cc2)cc1 2.16%
Cc1cc(C)c(Cn2c3ccccc3c3cnn(CC(=O)NCCc4ccccc4)c(=O)c32)c(C)c1 -6.56%
CCc1cccc(C)c1NS(=O)(=O)c1c(C(=O)N2CCCCCC2)c(C)n(C)c1C -7.21%
Cc1ccc(Cl)cc1N1CCN(C(=O)CN2C(=O)COc3ccc(S(=O)(=O)N4CCOCC4)cc32)CC1 0.477%
COc1ccc(Cl)cc1NC(=O)Cn1nnc2sc3c(c2c1=O)CCC(C(C)(C)C)C3 (configuration not stated) -0.249%
